Screen size: about 310,000 compounds; about 14,000 (4.5%) showed an effect of 50% or more. Effects have a minus sign here. Some of the results follow.

The record followed here is article PMC4336329 (PLoS ONE, 2015).
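Also: peak tail current of the secondary pulse compared with the same well before compound.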

For the test, the target named is human ether-à-go-go-related gene (hERG) potassium channel (human, UniProt Q12809). The test is described as follows: primary screen, population patch clamp on CHO cells stably expressing hERG.
Chain of human ether-à-go-go-related gene (hERG) potassium channel (Q12809 whole entry, looked up): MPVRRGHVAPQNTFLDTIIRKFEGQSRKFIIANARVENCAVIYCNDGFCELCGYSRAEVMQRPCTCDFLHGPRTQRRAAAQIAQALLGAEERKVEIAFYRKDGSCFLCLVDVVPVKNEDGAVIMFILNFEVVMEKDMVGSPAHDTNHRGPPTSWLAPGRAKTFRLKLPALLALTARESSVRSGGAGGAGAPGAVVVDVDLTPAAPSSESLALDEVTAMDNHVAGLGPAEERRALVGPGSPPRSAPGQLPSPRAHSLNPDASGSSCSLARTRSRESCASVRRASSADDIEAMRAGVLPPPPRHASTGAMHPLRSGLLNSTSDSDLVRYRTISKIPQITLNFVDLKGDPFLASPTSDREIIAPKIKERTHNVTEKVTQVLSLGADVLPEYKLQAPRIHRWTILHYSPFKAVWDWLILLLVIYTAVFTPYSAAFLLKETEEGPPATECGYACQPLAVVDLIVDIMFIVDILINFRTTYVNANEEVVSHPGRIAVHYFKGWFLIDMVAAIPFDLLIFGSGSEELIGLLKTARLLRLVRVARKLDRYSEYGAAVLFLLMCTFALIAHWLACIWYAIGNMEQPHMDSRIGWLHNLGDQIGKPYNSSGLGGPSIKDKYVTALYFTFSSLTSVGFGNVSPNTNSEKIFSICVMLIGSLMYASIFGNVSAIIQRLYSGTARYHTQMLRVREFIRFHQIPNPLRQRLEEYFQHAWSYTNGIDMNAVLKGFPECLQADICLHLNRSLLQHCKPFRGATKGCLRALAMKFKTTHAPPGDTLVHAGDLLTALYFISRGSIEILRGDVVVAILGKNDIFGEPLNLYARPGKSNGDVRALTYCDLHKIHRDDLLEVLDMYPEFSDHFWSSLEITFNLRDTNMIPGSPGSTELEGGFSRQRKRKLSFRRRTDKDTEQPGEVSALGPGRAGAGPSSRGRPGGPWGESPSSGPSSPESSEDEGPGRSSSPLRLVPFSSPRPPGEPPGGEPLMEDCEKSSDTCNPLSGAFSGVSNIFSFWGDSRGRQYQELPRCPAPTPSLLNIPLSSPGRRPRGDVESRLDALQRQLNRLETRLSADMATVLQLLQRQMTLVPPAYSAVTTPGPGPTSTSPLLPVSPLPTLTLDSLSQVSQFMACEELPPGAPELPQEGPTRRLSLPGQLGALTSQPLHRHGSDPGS
`N#CNC1=NCN(Cc2ccccc2)CN1`: the “hERG current change (%, negative = inhibition) at 10uM” value is on record as 12.4%.

For `COc1ccc(-n2c(C)nc3cc(C(=O)N4CCC5(CC4)OCCO5)ccc32)cc1`, the “hERG current change (%, negative = inhibition) at 10uM” value is listed as -19.9%.

For `CCCSc1nnc(NC(=O)Nc2ccccc2)s1`, the “hERG current change (%, negative = inhibition) at 10uM” value is listed as 24.5%.

On to `Cc1ccc(S(=O)(=O)N2CCCCC2)cc1NC(=O)COc1ccccc1F`, for which the “hERG current change (%, negative = inhibition) at 10uM” value was -4.42%.

Consider `CCOC(=O)c1ccc(NC(=O)c2nc[nH]c2C(=O)NCC(=O)OC(C)(C)C)cc1`, for which the “hERG current change (%, negative = inhibition) at 10uM” value was 19.5%.

With `CCn1c(=S)sc2c(=O)n(CC(=O)Nc3ccccc3OC)c(C)nc21`, the “hERG current change (%, negative = inhibition) at 10uM” value is reported as 1.24%.

For `COc1ccc(/C=C2\C(=O)N(Cc3ccc(F)cc3)CC(=O)N2Cc2ccccc2)cc1`, the “hERG current change (%, negative = inhibition) at 10uM” value stood at 6.75%.

With `CCc1nnc(NC(=O)c2ccc(-c3ccccc3F)o2)s1`, the “hERG current change (%, negative = inhibition) at 10uM” value was 11.2%.

For the compound `O=C(CN1CCN(Cc2ccccc2F)C1=O)NC1CCCC1`, the “hERG current change (%, negative = inhibition) at 10uM” value is 1.87%.

`COc1ccc(N2Nc3n[nH]c(N)c3N2)cc1`: the “hERG current change (%, negative = inhibition) at 10uM” value is -20.4%.

Regarding `CCCC1OC23CCCCC2C(C#N)(C(=N)O3)C1(C#N)C#N` (centres unmarked), the “hERG current change (%, negative = inhibition) at 10uM” value is recorded as 3.08%.

Turning to `CC(=O)c1oc2ccccc2c1N`, the “hERG current change (%, negative = inhibition) at 10uM” value is 4.12%.

Take `CC(Oc1ccccc1Cl)C(=O)/C=C/N(C)C` (centres unmarked): the “hERG current change (%, negative = inhibition) at 10uM” value turned out to be 25.1%.

On to `COc1ccc(Cn2c(=O)c3[nH]cnc3n(-c3ccccc3C)c2=O)cc1`, for which the “hERG current change (%, negative = inhibition) at 10uM” value was determined as 7.7%.

In the case of `CC1=C(C(=O)Nc2ccccc2)C(c2ccc(O)cc2)N2C(=O)CSC2=N1` (centres unmarked), the “hERG current change (%, negative = inhibition) at 10uM” value worked out at 3.47%.

Regarding `COC(=O)/C(C#N)=C/c1c(N2CCN(c3ccc(OC)cc3)CC2)nc2c(C)cccn2c1=O`, the “hERG current change (%, negative = inhibition) at 10uM” value is 5.47%.

For the compound `Cc1cc(SCc2cccc(Cl)c2)nc(=O)[nH]1`, the “hERG current change (%, negative = inhibition) at 10uM” value was 14.2%.

With `Cc1ccc(CNC(=O)C2CCC(=O)N(CCc3cccc(F)c3)C2)cc1` (centres unmarked), the “hERG current change (%, negative = inhibition) at 10uM” value is on record as -38%.

On to `COc1ccc(C(=O)NCC(c2ccco2)N2CCc3ccccc3C2)cc1` (centres unmarked), for which the “hERG current change (%, negative = inhibition) at 10uM” value is -22%.

As to `Cc1ccc(NC(=O)CCC(=O)NNC(=O)COc2cccc3ccccc23)c(C)c1`, the “hERG current change (%, negative = inhibition) at 10uM” value is recorded as -0.264%.

For `CCn1c(SCC(=O)NCc2cccs2)nnc1-c1ccncc1`, the “hERG current change (%, negative = inhibition) at 10uM” value is 12.6%.

In the case of `CSCC[C@H](NC(=O)c1ccc(Br)o1)c1nnc2ccccn12`, the “hERG current change (%, negative = inhibition) at 10uM” value worked out at 0.496%.

Consider `CCOC(=O)c1c(NC(=O)COc2ccccc2C#N)sc2c1CC(C)(C)NC2(C)C`, for which the “hERG current change (%, negative = inhibition) at 10uM” value amounted to 6.9%.

`CC1(C(=O)N2CC3(CC(c4cccc(NC(=O)COc5ccc(Cl)cc5)c4)=NO3)C[C@@H]2C(N)=O)CC1` (some centres unmarked): the “hERG current change (%, negative = inhibition) at 10uM” value is on record as -10.7%.

As to `O=C(Nc1ccc(C(=O)O)cc1)/C(=C\C=C\c1ccccc1)NC(=O)c1ccccc1Cl`, the “hERG current change (%, negative = inhibition) at 10uM” value is listed as 3.39%.

With `O=C(Cn1nc(-c2cccc(Cl)c2)ccc1=O)Nc1cccnc1`, the “hERG current change (%, negative = inhibition) at 10uM” value is reported as -8.01%.

In the case of `O=C(NCC(c1cccnc1)N1CCOCC1)c1ccco1` (centres unmarked), the “hERG current change (%, negative = inhibition) at 10uM” value came to 16.7%.

For `O=C(NN=C1CCCC1)c1ccccc1O`, the “hERG current change (%, negative = inhibition) at 10uM” value was determined as 24.8%.

`Cc1cc(C)c(C#N)c(Nc2ccccc2Cl)n1`: the “hERG current change (%, negative = inhibition) at 10uM” value amounted to 9.23%.

For `CC(=O)NC(=S)Nc1ccc2oc(-c3cc(F)c(F)cc3Cl)nc2c1`, the “hERG current change (%, negative = inhibition) at 10uM” value was found to be 25.4%.

Regarding `C/C=C/c1ccc(Oc2nnnn2-c2ccc(C(N)=O)cc2)c(OC)c1`, the “hERG current change (%, negative = inhibition) at 10uM” value is listed as 1.17%.

Consider `CCOC(=O)Cc1csc(NS(=O)(=O)c2ccc(Br)cc2)n1`, for which the “hERG current change (%, negative = inhibition) at 10uM” value is listed as -0.344%.

On to `O=S(=O)(NCc1ccccc1)c1ccc(S(=O)(=O)N(Cc2ccccn2)Cc2ccco2)cc1`, for which the “hERG current change (%, negative = inhibition) at 10uM” value was determined as 15.1%.

As to `O=C(CCn1c(=S)oc2ccccc21)NCCC1=CCCCC1`, the “hERG current change (%, negative = inhibition) at 10uM” value is given as 1.51%.

Regarding `CCOC(=O)c1c(C)[nH]c(C)c1C(=O)COC(=O)c1ccccc1O`, the “hERG current change (%, negative = inhibition) at 10uM” value is reported as -16%.

Consider `CCOc1ccc(C(=O)COc2ccc(NC(C)=O)cc2)cc1`, for which the “hERG current change (%, negative = inhibition) at 10uM” value is 13.2%.

As to `O=C(CCn1cccn1)Nc1ccc(-c2ccno2)cc1`, the “hERG current change (%, negative = inhibition) at 10uM” value was found to be 14.4%.

Turning to `COc1ccc(OC)c(/C=N/Nc2nncn2/N=C/c2cc(OC)ccc2OC)c1`, the “hERG current change (%, negative = inhibition) at 10uM” value is given as -26.6%.

Turning to `COCCCNC(=S)NNC(=S)Nc1ccc(OC)cc1`, the “hERG current change (%, negative = inhibition) at 10uM” value is listed as 11.6%.

As for `Cc1cc(C)c2c(-n3cccc3)c(C(=O)NNS(=O)(=O)c3ccccc3)sc2n1`, the “hERG current change (%, negative = inhibition) at 10uM” value was 8.4%.

With `CCOc1ccc(NS(=O)(=O)c2ccc3[nH]cc(C(=O)NCCOC)c(=O)c3c2)cc1`, the “hERG current change (%, negative = inhibition) at 10uM” value worked out at 12.4%.

With `COc1ccccc1Cn1c(-c2ccco2)nc2nc3ccccc3nc21`, the “hERG current change (%, negative = inhibition) at 10uM” value is -4.67%.

For the compound `COc1ccc2nc(C3CCCCC3)nc(C3CCCCC3)c2c1`, the “hERG current change (%, negative = inhibition) at 10uM” value is on record as 10.7%.

`Cc1ccc(S(=O)(=O)N2CCN(C(=O)Cn3c(=O)cnc4ccccc43)CC2)cc1`: the “hERG current change (%, negative = inhibition) at 10uM” value was -7.34%.

Turning to `CCCn1nc(NS(=O)(=O)c2ccc(F)cc2)c2cc3ccccc3nc21`, the “hERG current change (%, negative = inhibition) at 10uM” value was found to be 18.1%.

Turning to `C=CCc1c(C)nc(C)nc1N/N=C/c1ccccc1`, the “hERG current change (%, negative = inhibition) at 10uM” value is listed as -19.2%.

In the case of `COc1c(O)cc2c(c1O)C1OC(CO)C(O)C(O)C1OC2=O.O` (centres unmarked), the “hERG current change (%, negative = inhibition) at 10uM” value is -5.86%.

For `CCCc1cc(=O)oc2cc(C)cc(OCC(=O)NCc3ccncc3)c12`, the “hERG current change (%, negative = inhibition) at 10uM” value is -69.5%.

On to `Cc1ccc(OCC(=O)NCCS(=O)(=O)N2CCN(c3ccccc3)CC2)cc1`, for which the “hERG current change (%, negative = inhibition) at 10uM” value is listed as -10.1%.

Regarding `CCOc1cc(/C=C2/C(=N)N3C=CSC3=NC2=O)ccc1OCCCOc1ccccc1C`, the “hERG current change (%, negative = inhibition) at 10uM” value was found to be 5.99%.

Turning to `CCCN1CCc2c(sc(NC(=O)c3ccc(S(=O)(=O)N4CCN(C(=O)OCC)CC4)cc3)c2C(N)=O)C1`, the “hERG current change (%, negative = inhibition) at 10uM” value is listed as -2.25%.

As to `O=S(=O)(c1ccc(Br)cc1Cl)N1CC[NH+](CCO)CC1.[Cl-]`, the “hERG current change (%, negative = inhibition) at 10uM” value stood at 3.35%.

With `Cc1ccc(Nc2nnc(-c3ccccc3N)o2)cc1C`, the “hERG current change (%, negative = inhibition) at 10uM” value amounted to 11.9%.

Turning to `CCOC(=O)C1CCN(C(=O)CCNS(=O)(=O)c2ccc3c(c2)CCN3C(=O)CC)CC1`, the “hERG current change (%, negative = inhibition) at 10uM” value came out at 7.82%.

As to `Cc1cc(Cl)ccc1Oc1ccc(C(N)=O)cc1[N+](=O)[O-]`, the “hERG current change (%, negative = inhibition) at 10uM” value is listed as 0.613%.

Regarding `O=C(CN1C(=O)COc2ccc(Cl)cc21)Nc1ccc2c(c1)OCCO2`, the “hERG current change (%, negative = inhibition) at 10uM” value is recorded as 18.3%.
